Out of some 44,000 compounds screened, about 340 (0.77%) were called active. About 5% were inconclusive and are not listed. Calls come from the whole dose curve; as a rule, active = well fitted inhibition curve with a large enough effect; inconclusive = small, poorly fitted or top-dose-only effect; inactive = flat fitted curve, though single readings scatter. Some of the results follow.
Potency is the fitted concentration of half-maximal effect.

The assay can be described thus: Acumen qHTS Assay for Inhibitors of the mTORC1 Signaling Pathway in MEF (Tsc2-/-, p53-/-) Cells: Sytravon. Note: nearly all actives have a fitted effect of over 50% in size. The conditions noted are these: phospho-rpS6 immunofluorescence/PI, 24 h; series mostly up to 38.3 µM; activity change, negative = inhibition: at the top concentration. An excerpt:
NIH Molecular Libraries Probe Production Centers Network [MLPCN] NIH Chemical Genomics Center [NCGC] MLPCN Grant: NS059428-01 Assay Submitter (PI): Blenis, John; Hoffman, Greg; Harvard University NCGC Assay Overview: The mammalian target of rapamycin (mTOR) is an intracellular serine/threonine kinase Aberrant regulation of mTOR signaling plays a causative role in a number of human diseases, including cancer, benign tumors such as lymphangioleiomyomatosis (LAM) and Tuberous Sclerosis Complex (TSC), and metabolic diseases such as diabetes and obesity. This project aims to identify inhibitors of ribosomal protein S6 (rpS6) phosphorylation. The phosphorylation of rpS6 is a key event downstream of mTOR activation. The assay uses a phospho-specific antibody of phospho-rpS6 to detect inhibitors of mTOR activation. Mutations in the Tsc1 and Tsc2 genes are the underlying genetic lesions responsible for TSC, causing constitutive activation of the mTORC1 pathway and leading to profound effects on cell metabolism. Aberrant metabolism in cancer has recently received significant attention as a target to develop therapeutic agents in the treatment of cancer.1 As Tsc2-/- cells have lost the ability to respond to energy and growth factor deprivation, these cells are unable to properly down regulate cellular biosynthetic processes in response to metabolic stress, and are thus extremely sensitive to glucose deprivation-induced death.2 A central goal of this project is to explore the unique cell survival and metabolic properties of cells with Tsc1 or Tsc2 by screening for compounds that selectively target the Tsc2-/- MEFs by screening both Tsc2-/- and WT MEF cell lines. We hope to better understand these aspects of TSC physiology in order to exploit them for therapeutic benefit.
NCGC Acumen Assay Protocol Summary: For quantitative high throughput analysis of mTORC1 signaling, we developed a cell-based assay for immuno-fluorescence based detection of rpS6 phosphorylation on the Acumen Explorer that will be used a platform for the primary small molecule screen. Mouse embryonic fibroblasts (MEFs) are cultured in 1536-well plates using DMEM + 10% FBS. Twenty-four hrs after plating, test compounds (solubilized in DMSO) are delivered and incubated with the cells for 24 hrs at 37 degree Celsius. Following the incubation, media with compound is aspirated and the cells are fixed in 4% paraformaldehyde (PFA) containing PBS + 0.2% TX-100. Next, PFA is aspirated, cells are washed two times with PBS plus 0.2% TX-100 and the cells are blocked for 1 hr at room temperature (blocking buffer: LiCOR Blocking Buffer plus 0.2% TX-100). […] Cells are washed two times with PBS plus 0.2% TX-100, and stained with 10 uM propidium iodide (PI) for 20-25 minutes for cell number measurement (1:500 dilution of Hoescht staining is also added for IN Cell imaging). The plates are scanned on the Acumen Explorer laser scanning instrument (TTP Labtech) using the 488nm laser for simultaneous excitation of the Alexa-488 and PI. […] The normalized phospho-S6 staining is calculated as the ratio of the integrated Alexa 488 intensity divided by the integrated PI intensity for the single concentration rapamycin control (7.5 nM) and DMSO columns. […] Inhibition of the pathway is defined based on the normalized phospho-S6 intensity in rapamycin treated cells. Active cells are defined as those with a normalized phospho-S6 staining above this threshold, and each treatment is reported as the % positive cells in the well, where thresholds are defined by selecting wells with the highest and lowest signal and differentiating between the % non-active and % active populations. In addition to the pathway specific phospho-S6 endpoint, the number of PI stained cells from the Acumen is recorded as a measure of cell viability. The primary screen was performed with a MEF cell line in a defined genetic background, Tsc2-/-, p53-/- cell line stably transfected with an empty vector control (Tsc2-/- MEF).
(In general: Quantitative high-throughput screening tests each substance at several concentrations.)
Consider `O=C1CC(c2ccc(Br)cc2)c2c(ccc3ccccc23)N1` (centres undefined), for which the “activity change, negative = inhibition” value is inactive: -0.179%.
Same read-out and setting: for `Cc1ccc(CN2CCC(CNC(=O)Nc3cccc(C)c3C)C2)cc1` (centres undefined) the value was inactive: -13.7%.
On to `CCc1nc2nc(C)cc(Nc3ccc(F)c(Cl)c3)n2n1`, for which the “activity change, negative = inhibition” value was inactive: 6.35%.
Still for that read-out and setting: to `COc1cc(OC)c2c(C)c(CC(=O)N3CCCCC3)c(=O)oc2c1` belongs inactive: -11%; to `Cc1cccc(C(=O)Nc2ccccc2OCc2cc(=O)n3cc(C)ccc3n2)c1`, inactive: 8.56%; to `CC(=O)N1CCCc2cc(S(=O)(=O)N3CCCC(C(=O)Nc4ccc(C)c(F)c4)C3)ccc21` (centres undefined), inactive: -3.66%.
As to `COc1ccccc1-c1c(C)nn2c(N3CCN(c4ccc(F)cc4)CC3)cc(C)nc12`, the “activity change, negative = inhibition” value is inactive: -1.97%.
On the same count and under the same terms, to `CCN(CC)CCCNc1oc(-c2ccc(OC)cc2)nc1C#N` belongs inactive: -4.48%; to `CC(C)n1c(=O)c2oc3ccccc3c2n(CC(=O)Nc2ccccc2Cl)c1=O`, inactive: -7.73%.
`CCOC(=O)c1ccccc1NC(=O)c1c(C)oc2ncnc(N3CCOCC3)c12`: the “activity change, negative = inhibition” value was inactive: 0.688%.
Same read-out and setting: for `COc1cccc(-n2c(=O)c3c(C)c(C)sc3n(Cc3ccccc3C#N)c2=O)c1` the value was inactive: -1.22%.
Same read-out and setting: to `CCOc1ccc(CNC(=O)c2cc3ccccn3n2)cc1` belongs inactive: -13.7%; to `COc1ccc(-c2nc3sc(CCNC(=O)C(=O)Nc4ccccc4C#N)c(C)n3n2)cc1`, inactive: -1.05%; to `COCCCNC(=O)c1ccc(Cn2c(=O)c3ccccc3n(Cc3ccc(Cl)cc3)c2=O)cc1`, inactive: 6.39%.
The same measure, in the same setting: for `Cc1cccc(-n2c(SCC(=O)Nc3ccc(C)c(C)c3)nc3n[nH]c(C)c3c2=N)c1` the value was inactive: -15.9%; for `COc1cccc(-c2nn(C)c3sc(C(=O)NCc4ccc(OC)cc4OC)cc23)c1`, inactive: -7.65%; for `COc1ccc(CC(=O)NCC(c2cccs2)S(=O)(=O)c2ccc(F)cc2)cc1` (centres undefined), inactive: 0.33%.
Consider `O=C(CN1CCN(Cc2ccccc2F)C1=O)NCc1ccccc1`, for which the “activity change, negative = inhibition” value was inactive: -18.2%.
Still for that read-out and setting: to `Cc1ccc(C(=O)N(Cc2ccco2)c2ccccn2)cc1` belongs inactive: -14.3%; to `CCOc1ccccc1NC(=O)C1=C(C)Nc2ncnn2C1c1ccco1` (centres undefined), inactive: -2.98%.
The same measure, in the same setting: for `COc1cc(NC(=O)c2nn(C)c3c2COc2ccccc2-3)cc(OC)c1OC` the value was inactive: 1.46%; for `COc1ccc(CCNC(=O)c2ccc(Cn3c(SCc4ccccc4)nc4cccnc43)cc2)cc1`, inactive: 0.0449%.
The same measure, in the same setting: to `CC(C)c1cc(-c2nc(-c3ccc(Cl)cc3)no2)n[nH]1` belongs inactive: 3.16%; to `CCc1cnc2c(c1SC(C(C)=O)C(=O)N(C)C)c(=O)n(C)c(=O)n2C` (centres undefined), inactive: -2.55%.
As to `CC(C)c1ccc(NC(=O)c2ccc(CN3CC(=O)N4CCCCC4C3=O)cc2)cc1` (centres undefined), the “activity change, negative = inhibition” value was inactive: -18.8%.
The same measure, in the same setting: to `CCc1ccc(C2CC(=O)Nc3c2c(=O)nc2c(C)cccn32)cc1` (centres undefined) belongs inactive: 1.01%; to `Cc1cccc(NC(=O)Cn2c(=O)n(Cc3ccccc3)c(=O)c3oc4ccccc4c32)c1C`, inactive: 3.52%.
On the same count and under the same terms, for `Cc1ccc(CNC(=O)c2c(Nc3c(C)cccc3C)sc(C(=O)c3ccccc3)c2N)cc1` the value was inactive: -3.09%; for `CCOc1ccc(C2C(C(N)=O)=C(C)Nc3nc(SCc4ccccc4F)nn32)cc1` (centres undefined), inactive: -2.94%; for `COc1ccccc1C(=O)Nc1ccc(C(=O)OCc2cc(=O)n3c4c(sc3n2)CCCC4)cc1`, inactive: 0%.
On the same count and under the same terms, for `COc1ccccc1NC(=O)c1cnn(-c2ccccc2)c1-n1cccc1` the value was inactive: -4.54%; for `CN(C)c1ccc(CNC(=O)c2ccc3nc(Cc4ccccc4)oc3c2)cc1`, inactive: 0.35%; for `CSc1ccc(CCNC(=O)c2csc3c2CCCCC3)cc1`, inactive: 2.17%.
As to `O=C(O)CCn1ccc2cc(S(=O)(=O)N3CCCCCC3)ccc21`, the “activity change, negative = inhibition” value is inactive: -0.279%.
On the same count and under the same terms, to `Cc1cc(C)c(NC(=O)C(=O)NCCc2csc(-c3ccc(F)cc3)n2)c(C)c1` belongs inactive: -12%; to `Cc1cccn2c(=O)c(C(=O)N3CCN(c4ccccc4)CC3)cnc12`, inactive: 0.452%.
As to `COc1cc(Nc2nc(-c3ccc(OC)c(OC)c3)nc3ccccc23)cc(OC)c1`, the Potency is active: 16.5 µM.
Regarding `Cc1ccc(C(=O)c2c(N)c(C(=O)Nc3cccc(C(F)(F)F)c3)c3ccccn23)cc1`, the “activity change, negative = inhibition” value is inactive: -5.96%.
Regarding `Cc1ccc(-n2c(=O)c3oc4ccccc4c3n(Cc3cccc(F)c3)c2=O)cc1C`, the “activity change, negative = inhibition” value is inactive: -1.14%.
In the case of `COc1ccccc1Nc1c2c(nc3ccc(NC(=O)c4ccc(N(C)C)cc4)cc13)CCCC2`, the Potency is active: 5.21 µM.
For `CCCCOc1ccc(C(=O)Nc2cccc(-c3nc4ccccc4o3)c2C)cc1`, the “activity change, negative = inhibition” value was inactive: 4.85%.
The same measure, in the same setting: for `Cc1nc2nc(NCc3ccc(Br)cc3)[nH]n2c(=O)c1Cc1ccccc1` the value was inactive: -6.44%; for `CCCCC(CC)CNC(=O)CCCCCn1c(=O)[nH]c2ccsc2c1=O` (centres undefined), inactive: -0.733%.
For the molecule `O=C(c1ccc2c(c1)N(Cc1ccc(Cl)cc1)C(=O)c1ccccc1S2(=O)=O)N1CCOCC1`, the “activity change, negative = inhibition” value was inactive: 4.05%.
Still for that read-out and setting: for `CCCC(=O)Nc1ccc2oc(-c3ccc(O)c(Br)c3)nc2c1` the value was inactive: -20.9%; for `CC(C)c1ccc(NC(=O)c2ccc(=O)n(Cc3ccccc3)c2)cc1`, inactive: -10.2%; for `CCc1ccc(-n2c(=O)c3ccccc3n(Cc3ccccc3C#N)c2=O)cc1`, inactive: -2.69%.
Same read-out and setting: to `COc1cccc(C2C(C(N)=O)=C(C)Nc3ncnn32)c1` (centres undefined) belongs inactive: -1.84%.
On to `COc1ccc(OC)c(NC(=O)C2=C(C)C(=O)OC23CCN(C(C)C)CC3)c1`, for which the “activity change, negative = inhibition” value was inactive: -13.6%.

The values are drawn from PubChem BioAssay AID493208 (National Center for Advancing Translational Sciences (NCATS), 2011).
